Source: article PMC4336329 (PLoS ONE, 2015)
Out of some 310,000 compounds screened, about 14,000 (4.5%) showed an effect of 50% or more. The effect is printed as a negative number. This is one part of the list.

Target: human ether-à-go-go-related gene (hERG) potassium channel (human, UniProt Q12809)
Experiment: primary screen, population patch clamp on CHO cells stably expressing hERG
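Further: peak tail current of the secondary pulse compared with the same well before compound.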

human ether-à-go-go-related gene (hERG) potassium channel, sequence (Q12809 whole entry, looked up): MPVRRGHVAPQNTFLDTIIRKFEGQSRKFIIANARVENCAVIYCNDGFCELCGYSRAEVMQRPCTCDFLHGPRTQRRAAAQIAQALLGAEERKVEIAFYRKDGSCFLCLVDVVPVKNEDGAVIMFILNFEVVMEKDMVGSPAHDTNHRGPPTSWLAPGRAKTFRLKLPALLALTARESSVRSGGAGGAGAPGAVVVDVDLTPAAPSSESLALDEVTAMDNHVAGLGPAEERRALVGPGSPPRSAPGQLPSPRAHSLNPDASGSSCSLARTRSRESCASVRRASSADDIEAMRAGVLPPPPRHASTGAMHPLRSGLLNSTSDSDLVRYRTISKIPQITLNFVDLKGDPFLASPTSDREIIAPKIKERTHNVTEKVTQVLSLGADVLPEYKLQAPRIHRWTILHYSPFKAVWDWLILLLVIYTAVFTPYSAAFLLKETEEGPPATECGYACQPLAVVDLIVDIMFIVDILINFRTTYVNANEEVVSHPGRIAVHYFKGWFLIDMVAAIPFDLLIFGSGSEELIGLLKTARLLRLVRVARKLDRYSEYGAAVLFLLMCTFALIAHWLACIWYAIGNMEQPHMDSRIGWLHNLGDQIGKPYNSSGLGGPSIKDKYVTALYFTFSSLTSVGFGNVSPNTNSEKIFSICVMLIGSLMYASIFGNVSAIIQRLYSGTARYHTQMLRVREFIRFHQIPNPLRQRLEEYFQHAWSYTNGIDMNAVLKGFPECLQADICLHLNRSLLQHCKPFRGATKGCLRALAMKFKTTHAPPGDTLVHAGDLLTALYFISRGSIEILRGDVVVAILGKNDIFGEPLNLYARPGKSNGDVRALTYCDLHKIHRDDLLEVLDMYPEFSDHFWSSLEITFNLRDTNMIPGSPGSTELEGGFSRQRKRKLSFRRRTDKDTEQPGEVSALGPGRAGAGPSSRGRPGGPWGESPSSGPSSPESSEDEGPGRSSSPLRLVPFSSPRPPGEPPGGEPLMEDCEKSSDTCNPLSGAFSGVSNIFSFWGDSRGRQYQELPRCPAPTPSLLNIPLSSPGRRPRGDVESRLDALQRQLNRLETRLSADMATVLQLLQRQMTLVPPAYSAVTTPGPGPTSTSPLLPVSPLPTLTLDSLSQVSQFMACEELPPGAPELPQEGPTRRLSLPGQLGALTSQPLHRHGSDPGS

SMILES | hERG current change (%, negative = inhibition) at 10uM [%]
Nc1ncnc2c1nc(SCCO)n2Cc1ccccc1 | 12.5
O=C(Oc1ccc2c3c(c(=O)oc2c1)CCCC3)c1cccs1 | -4.43
CCCc1cc(C(=O)NC2CCCCC2)no1 | -14.2
CCC1(C)Cc2c(C#N)c(N)n(-c3ccccc3)c(=S)c2CO1 (stereo not drawn) | -2.01
COc1ccc(NC2=C(C(C)=O)C(c3ccc4c(c3)OCO4)C(C(C)=O)C(C)(O)C2)cc1 (stereo not drawn) | -1.51
Cc1ccc(CNC(=O)C2CCN(S(=O)(=O)c3c(C)noc3C)CC2)cc1 | 8.15
CCOc1ccc(CCNC(=O)Cn2c(=O)c3cccn3c3cccnc32)cc1 | 4.32
COCCNC(=O)c1onc(CSc2ccc(F)c(F)c2)c1C(=O)NCCOC | -25.5
Cc1cc(NC(=O)CSc2nc3c(c(=O)n(C)c(=O)n3C)n2C(C)C)no1 | 4.84
CCCCN(C(=O)C(C)(C)Oc1ccc(Cl)cc1)c1c(N)n(CCC)c(=O)[nH]c1=O | 9.47
CCc1nnc(NC(=O)CSc2nc3cc4c(cc3cc2CC)OCCO4)s1 | -9.7
COc1ccc(S(=O)(=O)N2CCCC(C(=O)NCC3CCCO3)C2)cc1C (stereo not drawn) | 0.251
N/C(=N\S(=O)(=O)c1ccccc1)c1ccc([N+](=O)[O-])cc1 | -30
COn1c(-c2ccccc2)nc2ccc(Cl)cc21 | -19
COc1ccc(S(=O)(=O)N2CCN=C2SCc2cccc(F)c2)cc1 | 5.41
CC(=O)Nc1ccc(S(=O)(=O)NC2(C(F)(F)F)C(=O)Nc3c2c(=O)[nH]c(=O)n3Cc2ccccc2)cc1 (stereo not drawn) | 4.59
CCN(c1ccccc1)S(=O)(=O)c1ccc2c(c1)N(C(C)=O)CCO2 | -4.11
Cc1cc(C(=O)N2CCN(C/C=C/c3ccccc3)CC2)cs1 | -34.5
CC(C(=O)NC1CC(C)(C)NC(C)(C)C1)c1ccc([N+](=O)[O-])cc1 (stereo not drawn) | 9.86
O=C(OCC(=O)N1CCN(C(=O)c2ccco2)CC1)c1ccccc1OCc1ccccc1 | -43.3
CC(=O)Nc1ccc(C(C#N)c2ccccc2)cc1 (stereo not drawn) | 1.6
CCCN1CCN(C(=O)c2noc3c2COc2ccc(C)cc2-3)CC1 | -8.37

SMILES | hERG current change (%, negative = inhibition) at 10uM [%]
COc1ccccc1NS(=O)(=O)c1cc(NC(=O)C2=NNC(=O)CC2)ccc1C | -5.66
Cc1nn2c(=O)cc(CSc3ccccc3NC(=O)c3ccccc3)nc2s1 | -4.63
CCOC(=O)c1sc(-c2ccccc2)cc1N | 20.8
Cc1nc2ccccc2c(=O)n1-c1ccccc1[N+](=O)[O-] | 17.2
CCOc1ccc2c(c1)c(N=NC(N)=S)c(O)n2C | 1.21
CCCN(CCC)C(=O)CSc1nc2ccsc2c(=O)n1NC(=O)c1ccccc1 | -16.1
COC(=O)C(O)(NC(=O)OCc1ccccc1)C(F)(F)F (stereo not drawn) | 1.32
CNS(=O)(=O)c1ccc(NC(=S)Nc2ccc3c(c2)OCO3)cc1 | 8.16
Cc1ccc(C)c(N2C(=O)CC(N3CCN(Cc4ccc5c(c4)OCO5)CC3)C2=O)c1 (stereo not drawn) | -43.4
CCCC1=[N+](CC(=O)c2ccccc2)CCn2c(C)ccc21.[Br-] | 2.56
COCCOC(=O)c1[nH]c2c(c1C)C(=O)CC(c1cc(OC)c(OC)c(OC)c1)C2 (stereo not drawn) | -2.61
CCOC(=O)c1cccc(NC(=O)CN2CCN(c3ccc(OC)cc3)CC2)c1 | -31.1
C[C@H]1CN=C(Nc2ccccc2)N1CC1CCCCC1 | 0.474
O=C1CC(=O)N(c2cccc(F)c2)N1 | 20.5
CCCCn1c(N)c(N(CCOC)C(=O)CCCc2nc3ccccc3c(=O)[nH]2)c(=O)[nH]c1=O | 4.54
O=C(CCC(=O)c1cccs1)OCc1nc2ccccc2s1 | 15.6
Cc1ccc(-c2nc(C3CCCN(S(=O)(=O)c4ccc(C)cc4)C3)no2)cc1 (stereo not drawn) | 12.2
CCN(CC(=O)Nc1ccccc1C(F)(F)F)C(=O)CN1C(=O)NC2(CCCCC2)C1=O | 3.96
CN1CCN(C(=O)c2cc(-c3cccc(Cl)c3)on2)CC1 | -1.97
CCCCOC(=O)c1sc2nc(C)cc(C)c2c1N | 11.7
Cc1ccc(-c2cc(C(=O)N(C)CC(=O)Nc3ccccc3Br)c3ccccc3n2)o1 | -7.28
CCOC(=O)C1=C(C)OC(N)=C(C#N)C1c1cc(F)ccc1F (stereo not drawn) | -9.31

SMILES | hERG current change (%, negative = inhibition) at 10uM [%]
O=C(NCc1cccnc1)/C(=C/c1ccc(-c2ccc(Cl)cc2)o1)S(=O)(=O)c1ccccc1 | -2.83
Cc1ccccc1-n1nc2c(c1NC(=O)c1c(-c3ccccc3Cl)noc1C)CSC2 | -10.9
COc1ccc(NS(=O)(=O)c2ccc(NC(=O)Cc3cccs3)cc2)cc1 | 12.7
O=C(COC(=O)/C=C/c1cccc(Br)c1)NCCC1=CCCCC1 | 32.1
CCCCCCC(=O)N/N=C/c1ccc(Br)cc1 | 1.25
Cc1ccccc1NC(=O)CN1CCN(C)CC1.O=C(O)C(=O)O | 2.24
CCc1ccc(OCC(=O)N(CC)CC)cc1 | -55
O=c1[nH]c(=S)n(C2CC2)c(O)c1C=NCc1ccc(F)cc1 | 12.7
COc1ccc(Cl)cc1N(CC(=O)Nc1ccc2c(c1)OCCO2)S(C)(=O)=O | -3.52
Cc1ccc(Cn2cnc3sc4c(c3c2=O)CCC4)c(C)c1 | 1.77
O=C(CSc1nc2ccccc2c(=O)n1-c1ccccc1)N1CCCc2ccccc21 | -4.39
COCCCNC(=S)NC1CC2CCCC(C1)N2Cc1cccs1 (stereo not drawn) | -15.9
COc1ccc(CCC(C)N2CCC(Oc3ccc(C(=O)N4CCCC4)cc3)CC2)cc1 (stereo not drawn) | -65.4
O=C(Cn1cnc2ccccc2c1=O)NNC(=O)c1cccc([N+](=O)[O-])c1 | 7.43
Cc1cnc(NC(=O)Cc2ccc(Br)cc2)s1 | 14.9
Cc1nc2ncnn2c(C)c1Cc1cccc(F)c1 | 6.72
O=C(COn1nnc2ccc(C(F)(F)F)cc21)Nc1c(Cl)cccc1Cl | -2.2
COc1ccc(C(C)(C)C)cc1NC(=O)CN1C(=O)C(=O)N(Cc2ccco2)C1=O | 2.86
COc1ccc(-n2c(C)c(C)c3c(N)ncnc32)cc1 | 4.6
COC(=O)c1ccccc1NC(=O)c1ccc(COc2ccc3c(c2)CCC3)cc1 | 5.47
C/C=C(/C)C(=O)Nc1cccc(C2=NOC3(C2)C[C@H](C(N)=O)N(C(=O)c2ccccc2)C3)c1 (stereo partly drawn) | -3.11
O=C1CCCC2=C1C(c1ccc(O)c(O)c1)c1c(ccc3ncccc13)N2 (stereo not drawn) | 17.1

SMILES | hERG current change (%, negative = inhibition) at 10uM [%]
CC(C)c1cc(C(=O)NCc2ccco2)no1 | 2.53
CCCCC/C=N/NC(=O)c1[nH]c2ccc([N+](=O)[O-])cc2c1C | -29.9
COc1ccc(N2CCN(C(CNC(C)=O)c3ccco3)CC2)cc1 (stereo not drawn) | 20.2
Oc1ccc(Br)cc1/C=N/n1c(COc2ccccc2)n[nH]c1=S | 16.5
CC(Sc1nc2ccccc2c(=O)[nH]1)C(=O)O (stereo not drawn) | 11.7
Cc1onc(-c2ccccc2)c1-c1n[nH]c(=S)n1-c1ccccc1 | 19.4
CC(C)c1cc(C(=O)N2CCCC(CCC(=O)N3CCN(c4ccccn4)CC3)C2)no1 (stereo not drawn) | -36.8
Nc1nnc(SCC(=O)N2CCc3ccccc3C2)s1 | 11.7
O=C(Nc1ccccc1)/C(=C/c1ccc([N+](=O)[O-])cc1)NC(=O)c1ccco1 | 6.42
O=C(COc1ccc([N+](=O)[O-])cc1)Nc1ccc2c(c1)nc1n2CCOC1 | -31.1
CN(C)CCCN1C(=O)CSC1c1ccccc1.Cl (stereo not drawn) | 1.24
Cc1ccc(CNC(=O)CSc2nc3c(sc4ccccc43)c(=O)n2CCCN2CCCC2)cc1 | -82.8
CCC(C)(C)C1CCc2c(sc(NC(=O)c3ccccc3C(=O)O)c2C#N)C1 (stereo not drawn) | 10.3
O=C(Nc1ccc(Br)cc1)c1cccc(N2C(=O)C3CCCCC3C2=O)c1 (stereo not drawn) | 1.69
Cc1nc2cc(-c3ccsc3-n3c(C)ccc3C)[nH]n2c(=O)c1Cl | -7.67
NC(=O)C1CCN(Cc2ccc(OCc3ccccc3)cc2)CC1.O=C(O)C(=O)O | -29.5
COC(=O)c1ccc(NC(=S)Nc2cccc(C)n2)cc1 | -0.48
Cc1ccc(S(=O)(=O)N2CCOCC2)cc1NC(=O)CSc1ncccn1 | -4.68
CCOCCCNc1nc2c(C)cccn2c(=O)c1/C=C1\SC(=S)N(C(C)CC)C1=O (stereo not drawn) | 10.9
Cc1ccc(C(=O)OCC(=O)N2C(C)CCCC2C)cc1S(=O)(=O)N1CCOCC1 (stereo not drawn) | -13
Cc1ccc(NC(=S)NC(NC(=O)C(C)(C)C)C(Cl)(Cl)Cl)c(C)c1 (stereo not drawn) | -24.6
